The values below come from article PMC12820563.

Some of the results follow. The list includes weakly bound sequences.

The target in the assay is T1, MBP-FoxP3dN (UniProt Q99JB6).
T1 sequence: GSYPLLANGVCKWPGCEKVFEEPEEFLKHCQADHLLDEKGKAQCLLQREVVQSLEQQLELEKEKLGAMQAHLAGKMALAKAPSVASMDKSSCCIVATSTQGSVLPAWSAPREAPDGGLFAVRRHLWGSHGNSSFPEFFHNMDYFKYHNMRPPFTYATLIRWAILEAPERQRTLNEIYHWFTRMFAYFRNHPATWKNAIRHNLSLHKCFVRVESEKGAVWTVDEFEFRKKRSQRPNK
Briefly: PD-seq (MBP pull-down with sequencing). Conditions: 20 mM Tris-HCl pH 7.5, 100 mM NaCl, 1.5 mM MgCl2, 0.4 uM protein, 0.1 uM dsDNA library, 30 min, room temperature, amylose pull-down; high values mean tight binding; double strand, one strand shown.
In the case of “GATGATTGTTCTCCCAGCTGATGAATTCGTAAGGTCGAGTAAACAAATTTTCCTAATCTTTCTGTTCAAGCGCCATCTAC”, the binding signal (RPM ratio (pull-down/input)) is 0.308. “GATGATTGTTCTCCCAGCTGATGAATTTGAGCTTTCGAGTAAACAAATTTTCCTAATCTTTCTGTTCAAGCGCCATCTAC”: the binding signal (RPM ratio (pull-down/input)) is 0.819.

For “GATGATTGTTCTCCCAGCTGATGAATTTGTCAGATCGAGTAAACAAATTTTCCTAATCTTTCTGTTCAAGCGCCATCTAC”, the binding signal (RPM ratio (pull-down/input)) came to 0.543. Consider “GATGATTGTTCTCCCAGCTGATGAATTTAACAAGTCGAGTAAACAAATTTTCCTAATCTTTCTGTTCAAGCGCCATCTAC”, for which the binding signal (RPM ratio (pull-down/input)) turned out to be 0.219. To “GATGATTGTTCTCCCAGCTGATGAATTAGAAAGATCGAGTAAACAAATTTTCCTAATCTTTCTGTTCAAGCGCCATCTAC” belongs 0.174; to “GATGATTGTTCTCCCAGCTGATGAATTAGCCCAGTCGAGTAAACAAATTTTCCTAATCTTTCTGTTCAAGCGCCATCTAC”, 0.209. Turning to “GATGATTGTTCTCCCAGCTGATGAATTTCGGAGGTCGAGTAAACAAATTTTCCTAATCTTTCTGTTCAAGCGCCATCTAC”, the binding signal (RPM ratio (pull-down/input)) is 0.25. Next, “GATGATTGTTCTCCCAGCTGATGAATTGCTGTGTTCGAGTAAACAAATTTTCCTAATCTTTCTGTTCAAGCGCCATCTAC”: 1.37; “GATGATTGTTCTCCCAGCTGATGAATTTCCCTGGTCGAGTAAACAAATTTTCCTAATCTTTCTGTTCAAGCGCCATCTAC”: 0.183. Take “GATGATTGTTCTCCCAGCTGATGAATTCTGCCCGTCGAGTAAACAAATTTTCCTAATCTTTCTGTTCAAGCGCCATCTAC”: the binding signal (RPM ratio (pull-down/input)) stood at 2.06. For “GATGATTGTTCTCCCAGCTGATGAATTCGCCAGTTCGAGTAAACAAATTTTCCTAATCTTTCTGTTCAAGCGCCATCTAC”, the binding signal (RPM ratio (pull-down/input)) worked out at 0.356. In the case of “GATGATTGTTCTCCCAGCTGATGAATTAAGGCCATCGAGTAAACAAATTTTCCTAATCTTTCTGTTCAAGCGCCATCTAC”, the binding signal (RPM ratio (pull-down/input)) was 1.38.

For the sequence “GATGATTGTTCTCCCAGCTGATGAATTGTAGTTCTCGAGTAAACAAATTTTCCTAATCTTTCTGTTCAAGCGCCATCTAC”, the binding signal (RPM ratio (pull-down/input)) came to 1.39.

For “GATGATTGTTCTCCCAGCTGATGAATTACCGTTCTCGAGTAAACAAATTTTCCTAATCTTTCTGTTCAAGCGCCATCTAC”, the binding signal (RPM ratio (pull-down/input)) worked out at 0.537.

As for “GATGATTGTTCTCCCAGCTGATGAATTATAGTGTTCGAGTAAACAAATTTTCCTAATCTTTCTGTTCAAGCGCCATCTAC”, the binding signal (RPM ratio (pull-down/input)) is 1.13. “GATGATTGTTCTCCCAGCTGATGAATTACCAAATTCGAGTAAACAAATTTTCCTAATCTTTCTGTTCAAGCGCCATCTAC”: the binding signal (RPM ratio (pull-down/input)) was 0.307. As for “GATGATTGTTCTCCCAGCTGATGAATTGTAGTTATCGAGTAAACAAATTTTCCTAATCTTTCTGTTCAAGCGCCATCTAC”, the binding signal (RPM ratio (pull-down/input)) came to 1.79. With “GATGATTGTTCTCCCAGCTGATGAATTAGTGCATTCGAGTAAACAAATTTTCCTAATCTTTCTGTTCAAGCGCCATCTAC”, the binding signal (RPM ratio (pull-down/input)) was 7.28. Next, “GATGATTGTTCTCCCAGCTGATGAATTCCCGTCATCGAGTAAACAAATTTTCCTAATCTTTCTGTTCAAGCGCCATCTAC”: 0.423; “GATGATTGTTCTCCCAGCTGATGAATTAATTGCATCGAGTAAACAAATTTTCCTAATCTTTCTGTTCAAGCGCCATCTAC”: 1.93. Turning to “GATGATTGTTCTCCCAGCTGATGAATTTTAACAATCGAGTAAACAAATTTTCCTAATCTTTCTGTTCAAGCGCCATCTAC”, the binding signal (RPM ratio (pull-down/input)) was 0.448. Next, “GATGATTGTTCTCCCAGCTGATGAATTAGAATAATCGAGTAAACAAATTTTCCTAATCTTTCTGTTCAAGCGCCATCTAC”: 0.283. To “GATGATTGTTCTCCCAGCTGATGAATTATTGGACTCGAGTAAACAAATTTTCCTAATCTTTCTGTTCAAGCGCCATCTAC” belongs 0.336; to “GATGATTGTTCTCCCAGCTGATGAATTCGAGAACTCGAGTAAACAAATTTTCCTAATCTTTCTGTTCAAGCGCCATCTAC”, 0.201; to “GATGATTGTTCTCCCAGCTGATGAATTCCACCCTTCGAGTAAACAAATTTTCCTAATCTTTCTGTTCAAGCGCCATCTAC”, 0.301. To “GATGATTGTTCTCCCAGCTGATGAATTACCATGGTCGAGTAAACAAATTTTCCTAATCTTTCTGTTCAAGCGCCATCTAC” belongs 0.29; to “GATGATTGTTCTCCCAGCTGATGAATTACCTTAGTCGAGTAAACAAATTTTCCTAATCTTTCTGTTCAAGCGCCATCTAC”, 0.241; to “GATGATTGTTCTCCCAGCTGATGAATTACAGCGTTCGAGTAAACAAATTTTCCTAATCTTTCTGTTCAAGCGCCATCTAC”, 1.22. On to “GATGATTGTTCTCCCAGCTGATGAATTGCCGCATTCGAGTAAACAAATTTTCCTAATCTTTCTGTTCAAGCGCCATCTAC”, for which the binding signal (RPM ratio (pull-down/input)) was 7.28. Next, “GATGATTGTTCTCCCAGCTGATGAATTAAGCCTATCGAGTAAACAAATTTTCCTAATCTTTCTGTTCAAGCGCCATCTAC”: 1.76; “GATGATTGTTCTCCCAGCTGATGAATTATTGCCGTCGAGTAAACAAATTTTCCTAATCTTTCTGTTCAAGCGCCATCTAC”: 1.03.

Turning to “GATGATTGTTCTCCCAGCTGATGAATTTCTCGATTCGAGTAAACAAATTTTCCTAATCTTTCTGTTCAAGCGCCATCTAC”, the binding signal (RPM ratio (pull-down/input)) was 0.237. In the case of “GATGATTGTTCTCCCAGCTGATGAATTCGGCGATTCGAGTAAACAAATTTTCCTAATCTTTCTGTTCAAGCGCCATCTAC”, the binding signal (RPM ratio (pull-down/input)) worked out at 1.04. For “GATGATTGTTCTCCCAGCTGATGAATTGGATCCTTCGAGTAAACAAATTTTCCTAATCTTTCTGTTCAAGCGCCATCTAC”, the binding signal (RPM ratio (pull-down/input)) was determined as 0.253. To “GATGATTGTTCTCCCAGCTGATGAATTGAGAGGCTCGAGTAAACAAATTTTCCTAATCTTTCTGTTCAAGCGCCATCTAC” belongs 0.392.

“GATGATTGTTCTCCCAGCTGATGAATTATCCGAGTCGAGTAAACAAATTTTCCTAATCTTTCTGTTCAAGCGCCATCTAC”: the binding signal (RPM ratio (pull-down/input)) is 0.234. As to “GATGATTGTTCTCCCAGCTGATGAATTCCCTTTCTCGAGTAAACAAATTTTCCTAATCTTTCTGTTCAAGCGCCATCTAC”, the binding signal (RPM ratio (pull-down/input)) came to 0.295.

For “GATGATTGTTCTCCCAGCTGATGAATTTGGGGTTTCGAGTAAACAAATTTTCCTAATCTTTCTGTTCAAGCGCCATCTAC”, the binding signal (RPM ratio (pull-down/input)) was determined as 0.898. For the sequence “GATGATTGTTCTCCCAGCTGATGAATTTGCGCGTTCGAGTAAACAAATTTTCCTAATCTTTCTGTTCAAGCGCCATCTAC”, the binding signal (RPM ratio (pull-down/input)) worked out at 2.13. For the sequence “GATGATTGTTCTCCCAGCTGATGAATTATTTGCTTCGAGTAAACAAATTTTCCTAATCTTTCTGTTCAAGCGCCATCTAC”, the binding signal (RPM ratio (pull-down/input)) came to 2.24.
